Results are given in words; binding and its absence hold for the method and conditions named. In cells and extracts the contact can be indirect. Some binding calls cover weakened binding; strength is not graded here. For part of these data: Sequences can lack the tags named with a protein. Values belong to the molecule of their own block, whether it stands above or below them.
Columns and labels:
[1] = biological target: endogenous ICE1 (human (endogenous in HEK293T)) (UniProt Q9Y2F5); test: co-IP; nuclear extracts of HEK293T cells with anti-ICE1 antibodies #1 or #2 or normal rabbit IgG on protein A magnetic beads, 2 h at 4 °C; wash 40 mM HEPES-NaOH pH 7.9, 0.15 M NaCl, 0.1% Triton X-100; western blotting
FLAG-tagged AF9 = FLAG-tagged AF9 (UniProt P42568); test: co-IP; anti-FLAG agarose purification from nuclear extracts (prepared with Benzonase) of cells stably expressing FLAG-tagged proteins, elution with FLAG peptide; western blotting; parental 293FRT cells as control
FLAG-tagged BTBD19 = biological target: T1, FLAG-tagged BTBD19 (UniProt C9JJ37); test: as above
T1 sequence: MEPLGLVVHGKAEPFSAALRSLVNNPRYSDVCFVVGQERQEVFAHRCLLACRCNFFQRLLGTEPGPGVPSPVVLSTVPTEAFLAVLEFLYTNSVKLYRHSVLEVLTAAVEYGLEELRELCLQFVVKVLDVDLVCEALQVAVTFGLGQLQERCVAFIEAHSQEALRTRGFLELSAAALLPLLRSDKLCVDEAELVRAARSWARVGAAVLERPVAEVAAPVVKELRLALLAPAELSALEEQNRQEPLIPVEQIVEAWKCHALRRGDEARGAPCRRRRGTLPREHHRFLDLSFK

Amino acid sequences for entries named in this document (tags omitted).
UniProt P42568: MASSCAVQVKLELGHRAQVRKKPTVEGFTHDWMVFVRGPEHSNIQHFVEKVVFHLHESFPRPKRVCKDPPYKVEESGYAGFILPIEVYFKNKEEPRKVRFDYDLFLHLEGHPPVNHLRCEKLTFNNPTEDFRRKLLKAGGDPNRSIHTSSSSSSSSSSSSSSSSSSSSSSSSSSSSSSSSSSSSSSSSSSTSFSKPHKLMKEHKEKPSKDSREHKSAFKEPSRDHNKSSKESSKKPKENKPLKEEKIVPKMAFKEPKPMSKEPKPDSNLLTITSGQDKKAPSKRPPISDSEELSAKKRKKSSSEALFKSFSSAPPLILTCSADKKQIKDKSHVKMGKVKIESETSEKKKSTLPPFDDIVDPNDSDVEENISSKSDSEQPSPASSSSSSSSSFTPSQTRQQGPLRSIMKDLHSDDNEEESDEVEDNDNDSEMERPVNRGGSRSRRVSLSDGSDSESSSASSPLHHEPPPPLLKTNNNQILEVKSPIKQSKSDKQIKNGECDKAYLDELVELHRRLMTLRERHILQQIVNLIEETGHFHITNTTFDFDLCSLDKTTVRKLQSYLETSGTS
UniProt Q96HW7: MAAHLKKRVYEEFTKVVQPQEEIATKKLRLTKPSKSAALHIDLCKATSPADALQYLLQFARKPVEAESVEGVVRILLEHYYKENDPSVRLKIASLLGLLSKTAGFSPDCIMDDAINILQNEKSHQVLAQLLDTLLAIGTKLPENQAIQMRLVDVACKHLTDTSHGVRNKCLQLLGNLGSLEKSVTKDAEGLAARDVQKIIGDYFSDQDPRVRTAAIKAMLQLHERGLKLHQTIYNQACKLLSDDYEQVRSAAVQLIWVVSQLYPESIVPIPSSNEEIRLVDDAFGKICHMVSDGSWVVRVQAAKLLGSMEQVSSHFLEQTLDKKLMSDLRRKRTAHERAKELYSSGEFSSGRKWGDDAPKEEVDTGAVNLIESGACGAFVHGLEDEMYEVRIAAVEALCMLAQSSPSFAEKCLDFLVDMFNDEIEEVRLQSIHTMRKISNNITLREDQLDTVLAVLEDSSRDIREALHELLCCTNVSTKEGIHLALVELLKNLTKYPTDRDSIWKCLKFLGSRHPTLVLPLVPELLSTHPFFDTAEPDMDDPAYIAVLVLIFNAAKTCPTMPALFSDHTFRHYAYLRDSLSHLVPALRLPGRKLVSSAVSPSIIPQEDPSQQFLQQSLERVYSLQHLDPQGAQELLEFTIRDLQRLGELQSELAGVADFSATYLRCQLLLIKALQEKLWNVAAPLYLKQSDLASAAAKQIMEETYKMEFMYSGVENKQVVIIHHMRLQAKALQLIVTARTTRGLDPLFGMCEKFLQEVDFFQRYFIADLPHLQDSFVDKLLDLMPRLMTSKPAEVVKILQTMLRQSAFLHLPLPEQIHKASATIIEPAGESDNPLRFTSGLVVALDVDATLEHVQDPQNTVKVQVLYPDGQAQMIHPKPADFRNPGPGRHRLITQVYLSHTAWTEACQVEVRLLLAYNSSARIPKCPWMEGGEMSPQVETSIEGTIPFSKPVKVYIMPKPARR
UniProt Q15648: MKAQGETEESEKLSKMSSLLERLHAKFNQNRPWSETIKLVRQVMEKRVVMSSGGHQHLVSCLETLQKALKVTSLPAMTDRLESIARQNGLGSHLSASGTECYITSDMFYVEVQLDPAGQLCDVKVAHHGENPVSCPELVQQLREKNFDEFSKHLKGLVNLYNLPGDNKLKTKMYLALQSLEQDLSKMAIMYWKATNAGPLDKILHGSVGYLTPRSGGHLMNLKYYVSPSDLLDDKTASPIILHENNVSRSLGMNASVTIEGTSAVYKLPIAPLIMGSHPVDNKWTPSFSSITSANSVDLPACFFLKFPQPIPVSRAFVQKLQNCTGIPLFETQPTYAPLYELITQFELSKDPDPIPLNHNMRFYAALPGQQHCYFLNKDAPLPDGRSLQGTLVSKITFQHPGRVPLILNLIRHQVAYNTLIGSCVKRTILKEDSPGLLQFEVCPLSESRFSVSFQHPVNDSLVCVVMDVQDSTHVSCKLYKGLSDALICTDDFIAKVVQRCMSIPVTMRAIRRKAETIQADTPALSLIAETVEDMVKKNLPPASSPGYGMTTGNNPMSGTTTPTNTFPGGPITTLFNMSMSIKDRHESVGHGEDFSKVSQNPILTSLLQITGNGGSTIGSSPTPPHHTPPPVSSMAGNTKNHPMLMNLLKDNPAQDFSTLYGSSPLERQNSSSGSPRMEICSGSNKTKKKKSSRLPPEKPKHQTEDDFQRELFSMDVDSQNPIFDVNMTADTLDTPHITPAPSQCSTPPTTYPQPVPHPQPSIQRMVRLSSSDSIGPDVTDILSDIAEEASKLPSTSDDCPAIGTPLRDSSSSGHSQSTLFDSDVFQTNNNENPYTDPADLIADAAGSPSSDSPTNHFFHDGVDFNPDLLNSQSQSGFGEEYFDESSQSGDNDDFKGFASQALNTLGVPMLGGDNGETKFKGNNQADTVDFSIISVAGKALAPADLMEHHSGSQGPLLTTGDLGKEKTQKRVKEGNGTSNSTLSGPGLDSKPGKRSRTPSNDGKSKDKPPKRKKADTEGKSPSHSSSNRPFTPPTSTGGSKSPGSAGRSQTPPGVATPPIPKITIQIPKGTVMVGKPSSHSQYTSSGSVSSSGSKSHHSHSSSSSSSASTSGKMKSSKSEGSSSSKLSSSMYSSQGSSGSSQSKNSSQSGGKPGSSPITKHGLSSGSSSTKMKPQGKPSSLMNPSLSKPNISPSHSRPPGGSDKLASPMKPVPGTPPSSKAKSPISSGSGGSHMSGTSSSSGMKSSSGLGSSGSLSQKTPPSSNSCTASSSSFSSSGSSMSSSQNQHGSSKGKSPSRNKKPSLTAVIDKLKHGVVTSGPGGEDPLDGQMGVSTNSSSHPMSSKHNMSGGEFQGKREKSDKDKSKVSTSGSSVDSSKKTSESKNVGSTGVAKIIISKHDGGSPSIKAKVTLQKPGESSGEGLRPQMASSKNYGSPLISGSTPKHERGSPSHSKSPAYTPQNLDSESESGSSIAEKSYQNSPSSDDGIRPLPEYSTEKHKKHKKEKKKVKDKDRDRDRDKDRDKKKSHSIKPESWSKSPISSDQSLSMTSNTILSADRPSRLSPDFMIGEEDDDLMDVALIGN

[2] = biological target: FLAG-tagged ICE1 (interactor of little elongation complex ELL subunit 1) (UniProt Q9Y2F5); test: as above
[3] = biological target: T2, FLAG-tagged CBP20 (recombinant) (UniProt P52298); test: pull-down; in vitro binding assay with baculovirally expressed FLAG-tagged SLBP, CBP80, CBP20 and HA-tagged ICE1-NL (1-1190); which was held is not told
T2 sequence: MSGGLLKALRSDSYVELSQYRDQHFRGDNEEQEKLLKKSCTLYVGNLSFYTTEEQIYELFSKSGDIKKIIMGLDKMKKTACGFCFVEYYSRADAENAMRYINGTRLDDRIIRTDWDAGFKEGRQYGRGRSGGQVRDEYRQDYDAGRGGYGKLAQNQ

[4] = biological target: FLAG-tagged SLBP (recombinant) (UniProt Q14493); test: as above

Molecule: INTS4 (from UniProt Q96HW7 1-963)
binding [1]: binds

Molecule: Mediator subunit MED1 (from UniProt Q15648 1-1581)
binding (FLAG-tagged AF9): binds
binding (FLAG-tagged BTBD19): no binding
binding [2]: binds

B2: HA-tagged N-terminal fragment of ICE1 (NL: 1-1190) (domain or fragment, UniProt Q9Y2F5 1-1190)
chain: MMPGETHSAAPGTAADLSRCQGCASLQQNLNEYVEALITLKQKIINTDNLLTEYQKKCDELQFARRENSNLHHQVEEMLQKISPLQKCQEELGSLKAELEEKKSSLKLYQDTHQEYARVKEECLKSDAQKKKLEAKVKKLQEAAVKQTQDFKQLRNEKKILEKEFKKTQERLDEFSKQKNEKELRHIGTQISSDSYGSIDKRKVKLLLKELWLCVNTTHRLPGEGSRCVPEKPAKAITSSRVPGEDGTLPPTQGSPLRTSNVQTCLTKLSMEIKEDFLCQNVEKQSSSGTNCSSDHVFNENGNLEVLVQSHRDGGSTEFVDHDHFFDEDLQAAIDFFKLPPPLLSPVPSPPPMSSPHPGSLPSSFAPETYFGEYTDSSDNDSVQLRNSAECVSEDDTTESQNYFGSLRKNKGSGTWEEKPKSHEAIQALNTWEVNKVTTSGLETFTATLRESSATHSLVGEKHWTTASRSMSDRKRDILHETKTQMEVREMDKSVQTEKTIHKLTRGLCIERLSASPAQEKEAAPGKSELCSSPLGKRPLNELMESEGKTVLSKMMGSPKSEFTKWTRINEITSEPDRITVSGHFHRLSRELEKEKEDTQGFTLGESPESEDDDSGDGMDVAGLDIETSFSSSSTLVALSVGSNPQSSSGLDCGNDTDITTKVFSTEPHHSEHKLQTKTLNTLHLQSEPPECSIGGNNLENSLCALSPELGASNFNDQKSSGIEYTKVVKGLTKIHSLPRSVFMKATKDGQCESQDPRIELTLNKPDFTSLIGSQAALIKSGLGFVKSTSWHHSDLLRKGGEESLRAKSEHEQKTSHQLQKAMPFLQNRGPTPKPDLLRENNNPVEFKTTASVLPNQVSVITKQTRPEKVQSAKLEHLRPHRVEPTLVTENSGNKTGMSTVAKCDGERDDTTQNITEVAAVKSISPEVSASRRKLDFNSPGGSSPVENSDCSTNSRLSFSPENILIQNQDIVREAAVQGDGQKQRQPQATDLDSSGTHGSEMLPATEVTVSGGFSVEETSCGDTGRSGGEALAVANDSTSTPQNANGLWKLKSTTPGGALPECFGTTDTTFSSAFCRKHGETQDTSQSSLPGTLHCYTGIREGGDDTEVESEAFSCSEGSEQQDAPDDSQKNLGDTDAAVAEVRPSLEVGYLTSALQDFNISTFSELDRLSTSEVVMFLESCQLGDYSSG
binding [3]: no binding
binding [4]: no binding

Continued, values first:

binding (FLAG-tagged AF9): binds
binding (FLAG-tagged BTBD19): no binding
binding [2]: binds
B1: Mediator subunit MED26 (protein, UniProt O95402 1-600)
chain: MTAAPASPQQIRDRLLQAIDPQSNIRNMVAVLEVISSLEKYPITKEALEETRLGKLINDVRKKTKNEELAKRAKKLLRSWQKLIEPAHQHEAALRGLAGATGSANGGAHNCRPEVGAAGPPRSIHDLKSRNDLQRLPGQRLDRLGSRKRRGDQRDLGHPGPPPKVSKASHDPLVPNSSPLPTNGISGSPESFASSLDGSGHAGPEGSRLERDENDKHSGKIPVNAVRPHTSSPGLGKPPGPCLQPKASVLQQLDRVDETPGPPHPKGPPRCSFSPRNSRHEGSFARQQSLYAPKGSVPSPSPRPQALDATQVPSPLPLAQPSTPPVRRLELLPSAESPVCWLEQPESHQRLAGPGCKAGLSPAEPLLSRAGFSPDSSKADSDAASSGGSDSKKKKRYRPRDYTVNLDGQVAEAGVKPVRLKERKLTFDPMTRQIKPLTQKEPVRADSPVHMEQQSRTELDKQEAKASLQSPFEQTNWKELSRNEIIQSYLSRQSSLLSSSGAQTPGAHHFMSEYLKQEESTRQGARQLHVLVPQSPPTDLPGLTREVTQDDLDRIQASQWPGVNGCQDTQGNWYDWTQCISLDPHGDDGRLNILPYVCLD

binding (FLAG-tagged BTBD19): no binding
binding [2]: binds
B3: Mediator subunit MED23 (protein, UniProt Q9ULK4 1-1368)
chain: METQLQSIFEEVVKTEVIEEAFPGMFMDTPEDEKTKLISCLGAFRQFWGGLSQESHEQCIQWIVKFIHGQHSPKRISFLYDCLAMAVETGLLPPRLVCESLINSDTLEWERTQLWALTFKLVRKIIGGVDYKGVRDLLKVILEKILTIPNTVSSAVVQQLLAAREVIAYILERNACLLPAYFAVTEIRKLYPEGKLPHWLLGNLVSDFVDTFRPTARINSICGRCSLLPVVNNSGAICNSWKLDPATLRFPLKGLLPYDKDLFEPQTALLRYVLEQPYSRDMVCNMLGLNKQHKQRCPVLEDQLVDLVVYAMERSETEEKFDDGGTSQLLWQHLSSQLIFFVLFQFASFPHMVLSLHQKLAGRGLIKGRDHLMWVLLQFISGSIQKNALADFLPVMKLFDLLYPEKEYIPVPDINKPQSTHAFAMTCIWIHLNRKAQNDNSKLQIPIPHSLRLHHEFLQQSLRNKSLQMNDYKIALLCNAYSTNSECFTLPMGALVETIYGNGIMRIPLPGTNCMASGSITPLPMNLLDSLTVHAKMSLIHSIATRVIKLAHAKSSVALAPALVETYSRLLVYMEIESLGIKGFISQLLPTVFKSHAWGILHTLLEMFSYRMHHIQPHYRVQLLSHLHTLAAVAQTNQNQLHLCVESTALRLITALGSSEVQPQFTRFLSDPKTVLSAESEELNRALILTLARATHVTDFFTGSDSIQGTWCKDILQTIMSFTPHNWASHTLSCFPGPLQAFFKQNNVPQESRFNLKKNVEEEYRKWKSMSNENDIITHFSMQGSPPLFLCLLWKMLLETDHINQIGYRVLERIGARALVAHVRTFADFLVYEFSTSAGGQQLNKCIEILNDMVWKYNIVTLDRLILCLAMRSHEGNEAQVCYFIIQLLLLKPNDFRNRVSDFVKENSPEHWLQNDWHTKHMNYHKKYPEKLYFEGLAEQVDPPVQIQSPYLPIYFGNVCLRFLPVFDIVIHRFLELLPVSKSLETLLDHLGGLYKFHDRPVTYLYNTLHYYEMHLRDRAFLKRKLVHAIIGSLKDNRPQGWCLSDTYLKCAMNAREENPWVPDDTYYCRLIGRLVDTMAGKSPGPFPNCDWRFNEFPNPAAHALHVTCVELMALAVSGKEVGNALLNVVLKSQPLVPRENITAWMNAIGLIITALPEPYWIVLHDRIVSVISSPSLTSETEWVGYPFRLFDFTACHQSYSEMSCSYTLALAHAVWHHSSIGQLSLIPKFLTEVLLPIVKTEFQLLYVYHLVGPFLQRFQQERTRCMIEIGVAFYDMLLNVDQCSTHLNYMDPICDFLYHMKYMFTGDSVKEQVEKIICNLKPALKLRLRFITHISKMEPAAVPPQAMNSGSPAPQSNQVPVSLPVTQ

binding [1]: binds
B4: Symplekin (protein, UniProt Q92797 1-1274)
chain: MASGSGDSVTRRSVASQFFTQEEGPGIDGMTTSERVVDLLNQAALITNDSKITVLKQVQELIINKDPTLLDNFLDEIIAFQADKSIEVRKFVIGFIEEACKRDIELLLKLIANLNMLLRDENVNVVKKAILTMTQLYKVALQWMVKSRVISELQEACWDMVSAMAGDIILLLDSDNDGIRTHAIKFVEGLIVTLSPRMADSEIPRRQEHDISLDRIPRDHPYIQYNVLWEEGKAALEQLLKFMVHPAISSINLTTALGSLANIARQRPMFMSEVIQAYETLHANLPPTLAKSQVSSVRKNLKLHLLSVLKHPASLEFQAQITTLLVDLGTPQAEIARNMPSSKDTRKRPRDDSDSTLKKMKLEPNLGEDDEDKDLEPGPSGTSKASAQISGQSDTDITAEFLQPLLTPDNVANLVLISMVYLPEAMPASFQAIYTPVESAGTEAQIKHLARLMATQMTAAGLGPGVEQTKQCKEEPKEEKVVKTESVLIKRRLSAQGQAISVVGSLSSMSPLEEEAPQAKRRPEPIIPVTQPRLAGAGGRKKIFRLSDVLKPLTDAQVEAMKLGAVKRILRAEKAVACSGAAQVRIKILASLVTQFNSGLKAEVLSFILEDVRARLDLAFAWLYQEYNAYLAAGASGSLDKYEDCLIRLLSGLQEKPDQKDGIFTKVVLEAPLITESALEVVRKYCEDESRTYLGMSTLRDLIFKRPSRQFQYLHVLLDLSSHEKDKVRSQALLFIKRMYEKEQLREYVEKFALNYLQLLVHPNPPSVLFGADKDTEVAAPWTEETVKQCLYLYLALLPQNHKLIHELAAVYTEAIADIKRTVLRVIEQPIRGMGMNSPELLLLVENCPKGAETLVTRCLHSLTDKVPPSPELVKRVRDLYHKRLPDVRFLIPVLNGLEKKEVIQALPKLIKLNPIVVKEVFNRLLGTQHGEGNSALSPLNPGELLIALHNIDSVKCDMKSIIKATNLCFAERNVYTSEVLAVVMQQLMEQSPLPMLLMRTVIQSLTMYPRLGGFVMNILSRLIMKQVWKYPKVWEGFIKCCQRTKPQSFQVILQLPPQQLGAVFDKCPELREPLLAHVRSFTPHQQAHIPNSIMTILEASGKQEPEAKEAPAGPLEEDDLEPLTLAPAPAPRPPQDLIGLRLAQEKALKRQLEEEQKLKPGGVGAPSSSSPSPSPSARPGPPPSEEAMDFREEGPECETPGIFISMDDDSGLTEAALLDSSLEGPLPKETAAGGLTLKEERSPQTLAPVGEDAMKTPSPAAEDAREPEAKGNS

Reference: article PMC7044329
